Assay results reported in the antibiotic and cytotoxicity screens of Wong et al. (2023).
Some of the results follow.

test system: HepG2; test: cytotoxicity call (relative viability < 0.9); settings: 10 µM

Row | SMILES | cytotoxicity call
1 | CC[C@@H](N)C12CC3CC(CC(C3)C1)C2 | inactive
2 | C[C@H]1CN([C@@H](C)CO)S(=O)(=O)c2ccc(-c3cncnc3)cc2O[C@H]1CN(C)C(=O)Cc1ccncc1 | inactive
3 | Cl.NCc1ccc(S(N)(=O)=O)cc1 | inactive
4 | C[C@@H]1CCCCO[C@@H](CN(C)C(=O)Nc2ccc3c(c2)OCO3)[C@H](C)CN([C@H](C)CO)C(=O)c2cc(NC(=O)c3ccccc3)ccc2O1 | inactive
5 | C[C@@H]1CCCCO[C@@H](CN(C)C(=O)CCCN(C)C)[C@@H](C)CN([C@@H](C)CO)C(=O)c2cc(NC(=O)Nc3ccc(C(F)(F)F)cc3)ccc2O1 | inactive
6 | Cc1ccc(S(=O)(=O)N2C[C@H](O)COC[C@H]3O[C@@H](CC(=O)N[C@H]4CCN(Cc5ccccc5)C4)CC[C@@H]32)cc1 | inactive
7 | CC(C)(C)NC[C@@H](O)CSc1nc(-c2ccc(C(N)=O)s2)cs1 | inactive
8 | COCC#Cc1ccc2c(c1)O[C@H](CN(C)S(=O)(=O)c1ccc(F)cc1)[C@H](C)CN([C@H](C)CO)S2(=O)=O | inactive
9 | C[C@@H]1CCCCO[C@@H](CN(C)S(=O)(=O)c2ccccc2)[C@@H](C)CN([C@@H](C)CO)C(=O)c2cc(NS(=O)(=O)c3ccc(Cl)cc3)ccc2O1 | inactive
10 | C[C@@H]1CN([C@H](C)CO)C(=O)c2cc(NS(=O)(=O)c3ccc(Cl)cc3)ccc2O[C@@H](C)CCCCO[C@H]1CN(C)C(=O)Nc1ccc2c(c1)OCO2 | inactive
11 | C[C@H]1CN([C@@H](C)CO)C(=O)c2cccc(NC(=O)C3CCOCC3)c2O[C@H]1CN(C)Cc1ccc(C(=O)O)cc1 | inactive
12 | COc1ccc(NC(=O)Nc2cccc3c2O[C@H](CN(C)S(C)(=O)=O)[C@H](C)CN([C@H](C)CO)C3=O)cc1 | inactive
13 | CO[C@H]1CN(C)C(=O)c2cc(NC(=O)C3CC3)ccc2OC[C@H](C)N(C(=O)Cc2ccccn2)C[C@H]1C | inactive
14 | COC(=O)C[C@H]1CC[C@H]2[C@H](COc3ccc(NS(=O)(=O)c4ccccc4Cl)cc3C(=O)N2C)O1 | inactive
15 | NCC1CCOCC1 | inactive
16 | Nc1nonc1C(=O)OCC(=O)c1ccccc1 | inactive
17 | Nc1ncnc2c1nc(Br)n2[C@H]1O[C@H]2COP(=O)(O)O[C@@H]2[C@@H]1O | inactive
18 | CC(C)CC#Cc1ccc2c(c1)O[C@@H](CN(C)Cc1cncnc1)[C@H](C)CN([C@@H](C)CO)S2(=O)=O | inactive
19 | C1CC1c1noc(C2CNC2)n1 | inactive
20 | COc1ccc(NC(=O)Nc2ccc3c(c2)C(=O)N([C@@H](C)CO)C[C@@H](C)[C@H](CN(C)C(=O)c2ccccc2)OCCCC[C@H](C)O3)cc1 | inactive

Row | SMILES | cytotoxicity call
21 | COc1ccccc1-c1ccc2c(c1)O[C@H](CN(C)C(=O)c1ccncc1)[C@H](C)CN([C@H](C)CO)S2(=O)=O | inactive
22 | C[C@H](CO)N1C[C@H](C)[C@H](CN(C)C(=O)C2CCCCC2)Oc2cc(C#CC3CC3)ccc2S1(=O)=O | inactive
23 | NCC[C@H]1CC[C@@H](NC(=O)C2CCCC2)[C@H](CO)O1 | inactive
24 | C[C@@H]1CN([C@H](C)CO)C(=O)c2c(c3ccccc3n2C)-c2ccccc2CO[C@H]1CN(C)Cc1ccccc1 | active
25 | COc1cc2c(cc1OC)CN(C(=O)[C@@H]1[C@H]3C(=O)O[C@H](c4ccccc4)[C@H](c4ccccc4)N3[C@H](c3ccc(O)cc3)[C@@]13C(=O)Nc1ccc(C#CCCO)cc13)CC2 | inactive
26 | CC1(C)SCCN(S(=O)(=O)c2ccc(OCC#CCO)cc2)[C@H]1C(=O)NO | inactive
27 | COc1ccc(CN(C)C[C@@H]2Oc3c(NC(=O)Nc4ccc(C(F)(F)F)cc4)cccc3C(=O)N([C@@H](C)CO)C[C@H]2C)cc1 | active
28 | Cc1noc(C)c1S(=O)(=O)N(C)C[C@@H]1Oc2ccc(NS(=O)(=O)c3ccccc3)cc2CC(=O)N([C@@H](C)CO)C[C@H]1C | inactive
29 | COc1ccc(S(=O)(=O)N[C@H]2C=C[C@@H](CC(=O)NCCc3ccncc3)O[C@H]2CO)cc1 | inactive
30 | O=C(NCCN1CCOCC1)[C@@H]1c2ccccc2C(=O)N(Cc2cc(C(F)(F)F)cc(C(F)(F)F)c2)[C@H]1c1ccc(CO)cc1 | inactive
31 | Cc1ccc(S(=O)(=O)N(C)C[C@@H]2OCCCC[C@H](C)Oc3ccc(NC(=O)c4ccccc4)cc3C(=O)N([C@@H](C)CO)C[C@H]2C)cc1 | inactive
32 | CCC[C@@H](O)C#Cc1cnc2c(c1)C(=O)N([C@H](C)CO)C[C@H](C)[C@H](CN(C)C(=O)Nc1ccccc1)O2 | inactive
33 | C[C@H]1CN([C@@H](C)CO)C(=O)c2cccc(NC(=O)CCCCCC(=O)Nc3ccccc3N)c2O[C@H]1CN(C)C(=O)Nc1cccc2ccccc12 | inactive
34 | CCCC#Cc1ccc2c(c1)O[C@H](CN(C)C(=O)c1cnccn1)[C@@H](C)CN([C@@H](C)CO)S2(=O)=O | inactive
35 | C[C@@H]1[C@@H]([Si](C)(C)F)[C@H](CC(=O)N(CCO)Cc2ccccc2)O[C@@]12C(=O)N(c1ccccc1)c1ccccc12 | active
36 | C[C@@H]1CCCCO[C@H](CN(C)C(=O)Nc2cccc3ccccc23)[C@H](C)CN([C@@H](C)CO)C(=O)c2cc(NS(=O)(=O)c3ccc(Cl)cc3)ccc2O1 | inactive
37 | Cc1ccc(S(=O)(=O)Nc2ccc3c(c2)C(=O)N([C@@H](C)CO)C[C@@H](C)[C@@H](CN(C)C(=O)Cc2ccccc2)OCCCC[C@H](C)O3)cc1 | inactive
38 | COCC#Cc1ccc2c(c1)O[C@H](CN(C)S(=O)(=O)c1cccc(F)c1)[C@@H](C)CN([C@@H](C)CO)S2(=O)=O | inactive
39 | COC(=O)Cc1cc(=O)n(-c2ccccc2)[nH]1 | inactive
40 | CNC(=O)C(=O)Nc1cc(Cl)ccc1C#N | inactive
